# Assay results published in PubChem BioAssay AID485281 (National Center for Advancing Translational Sciences (NCATS), 2010).
# In all, about 350,000 compounds went through this assay and about 260 (0.074%) were called active. This list was built around the results that the source calls inconclusive (neither active nor inactive); the mix of calls is not that of the screen. Calls follow the shape of the dose curve; as a rule, active = well fitted inhibition curve with a large enough effect; inconclusive = small, poorly fitted or top-dose-only effect; inactive = no such curve, though single readings can be large or run the other way. Potencies beside an inconclusive call are fits to weak or partial responses and may not hold up.
# Biological target: Ferritin light chain (Equus caballus) (UniProt P02791)
# Sequence of UniProt P02791 (P02791 whole entry, looked up): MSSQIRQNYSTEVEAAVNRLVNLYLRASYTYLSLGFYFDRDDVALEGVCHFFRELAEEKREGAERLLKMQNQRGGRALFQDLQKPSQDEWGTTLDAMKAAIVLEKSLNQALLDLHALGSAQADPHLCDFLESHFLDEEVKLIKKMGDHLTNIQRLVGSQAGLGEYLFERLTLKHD
# Test: qHTS Assay for Identification of Novel General Anesthetics; also: nearly all actives have a fitted effect of over 20% in size
# Settings: apoferritin/1-aminoanthracene competitive binding, fluorescence; series mostly up to 77.5 µM
# Method in brief: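 Steps: apoferritin (10 uM) was premixed with half-saturated 1-AMA in PBS, compounds were pin-transferred, plates stood 10 min at room temperature, fluorescence was read at 380/535 nm, and curves were fitted with a Hill equation.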
# Tags tell the direction and shape of the fitted curve.
row,SMILES,Potency
1,Cc1ccc(OC(=O)c2ccc(Br)o2)cc1,"inconclusive: 25.1 µM [inhibitor, partial curve]"
2,CCN(CC)S(=O)(=O)c1ccc(NN=C(C#N)C#N)cc1,"inconclusive: 31.6 µM [inhibitor, partial curve]"
3,CC1Oc2cc3c(-c4c(O)cc(O)c5c(O)c6c(cc45)OC(C)C(C)C6=O)c(O)cc(O)c3c(O)c2C(=O)C1C (configuration not stated),"inconclusive: 28.2 µM [inhibitor, single point]"
4,O=C(Nc1ccc(Cl)cc1C(=O)c1ccccc1)c1ccccc1Br,"inconclusive: 12.6 µM [inhibitor, partial curve]"
5,CCN1CCN(Cc2cc(Br)ccc2O)CC1,inactive
6,CCC(C)n1c(O)c(C=Nc2cccc(C(F)(F)F)c2)c(=O)[nH]c1=S (configuration not stated),"inconclusive: 31.6 µM [inhibitor, partial curve]"
7,O=C1NC(=O)N(Cc2ccco2)C(=O)/C1=C/c1ccc(-c2cccc([N+](=O)[O-])c2)o1,"inconclusive: 56.2 µM [inhibitor, single point]"
8,O=[N+]([O-])c1ccc(Nc2ccccc2)cc1,"inconclusive: 31.6 µM [inhibitor, single point]"
9,O=C(c1ccccc1F)c1cn(Cc2ccccc2)c2ccccc12,"inconclusive: 17.8 µM [inhibitor, partial curve]"
10,COc1ccc(-[n+]2c(-c3ccccc3)cc(-c3ccc(C)cc3)cc2-c2ccccc2)cc1,"inconclusive: 39.8 µM [inhibitor, partial curve]"
11,CCCCC(CC)COCCCN=Cc1c(O)[nH]c(=S)[nH]c1=O (configuration not stated),"inconclusive: 31.6 µM [inhibitor, single point]"
12,Cc1ccc(NC(=O)C2CCCN2S(=O)(=O)c2ccc3c(c2)CCCC(=O)N3)cc1Cl (configuration not stated),"inconclusive: 10 µM [inhibitor, full curve, poor fit]"
13,C=CCN1C(=O)NC(=O)C(Cc2ccc(OC)c(OC)c2)C1=O (configuration not stated),"inconclusive: 39.8 µM [inhibitor, partial curve]"
14,CN(C)CCN(C)CCc1ccc(Cl)c(Cl)c1,inactive
15,CCOC(=O)C(O)(c1ccc(N=Cc2ccccc2O)c(C)c1)C(F)(F)F (configuration not stated),"inconclusive: 20 µM [inhibitor, partial curve]"
16,CCCCn1c(O)c(C(C)=NC(C)c2ccccc2)c(=O)[nH]c1=O (configuration not stated),"inconclusive: 31.6 µM [inhibitor, partial curve]"
17,Nc1ccc(N=Nc2ccccc2)cc1,"inconclusive: 28.2 µM [inhibitor, partial curve]"
18,CCOC(=O)c1nc2ccccc2c(=O)n1-c1ccc(C)cc1C,"inconclusive: 25.1 µM [inhibitor, partial curve]"
19,Cc1ccc(Cn2nnnc2CN2CCC(n3nnc4cc(C(F)(F)F)ccc43)CC2)cc1,inactive
20,CCCCN1C(=O)/C(=C\c2ccco2)C(=O)N(CCc2ccccc2)C1=O,"inconclusive: 28.2 µM [inhibitor, partial curve]"
21,CCCCOc1ccc(CNC(=O)c2cc3n(n2)CCCN(Cc2ccc(C)cc2)C3=O)cc1,inactive

row,SMILES,Potency
1,CC(C)CC1C(=O)N2CCCC2C2(O)O[C@@](NC(=O)C3C=C4c5cccc6[nH]c(Br)c(c56)CC4N(C)C3)(C(C)C)C(=O)N12 (some centres not stated),"inconclusive: 28.2 µM [inhibitor, partial curve]"
2,O=C1/C(=C\c2ccc([N+](=O)[O-])cc2)N2CCC1CC2,"inconclusive: 50.1 µM [inhibitor, single point]"
3,O=S(=O)(NC1CCCC1)OCC(Cl)(Cl)Cl,"inconclusive: 22.4 µM [inhibitor, partial curve]"
4,CCCCCCCSc1cc(OC)c(CCNC)cc1OC,"inconclusive: 17.8 µM [inhibitor, partial curve]"
5,Cc1nn(Cc2ccccc2Cl)c(C)c1C(=O)OCC(=O)N1CC(C)OC(C)C1 (configuration not stated),"inconclusive: 50.1 µM [inhibitor, single point]"
6,Cc1ccc2nsnc2c1NS(=O)(=O)c1c(C)ccc2nsnc12,"inconclusive: 28.2 µM [inhibitor, single point]"
7,CCCc1cc(=O)oc2cc(OCC(=O)N3CCN(Cc4ccc5c(c4)OCO5)CC3)ccc12,"inconclusive: 10 µM [inhibitor, partial curve]"
8,CCOC(=O)N1CCC(NC(=O)c2ccc3c(c2)N(Cc2cccc(C)c2)C(=O)c2ccccc2S3(=O)=O)CC1,"inconclusive: 8.91 µM [inhibitor, partial curve]"
9,COc1cc2c(cc1OC)-c1c(OC)c(OC)c(OC)c3ccnc(c13)C2=O,inactive
10,Oc1ccc(C(=C(Cl)Cl)c2ccc(O)cc2)cc1,"inconclusive: 35.5 µM [inhibitor, partial curve]"
11,COC(=O)/C(C)=C\CC12OC(C)(C)C3CC(C=C4C(=O)c5c(OC)c6c(c(CC=C(C)C)c5OC431)OC(C)(CCC=C(C)C)C=C6)C2=O (configuration not stated),"inconclusive: 12.6 µM [inhibitor, partial curve]"
12,CCC(=O)CC(c1ccccc1)c1c(O)c2ccccc2sc1=O (configuration not stated),inactive
13,CC(C)CCCC(C)C1CCC2C3C(=O)C=C4CC(O)CC[C@@]4(C)C3CC[C@@]12C (some centres not stated),"inconclusive: 39.8 µM [inhibitor, single point]"
14,COc1ccc2c(c1)CC1(CN2C)C(=O)NC(=O)N(CCc2ccccc2)C1=O (configuration not stated),"inconclusive: 35.5 µM [inhibitor, single point]"
15,O=c1[nH]c(CN2CC=C(c3ccccc3)CC2)nc2cc(C(F)(F)F)ccc12,"inconclusive: 28.2 µM [inhibitor, partial curve]"
16,Cc1nn(C2CCOC(C)(C)C2)c2c1C(c1ccc(OC(C)C)cc1)SCC(=O)N2 (configuration not stated),"inconclusive: 56.2 µM [inhibitor, single point]"
17,Cc1cccc(C(=O)Nc2ccc3c(c2)CC2(C(=O)N(C)C(=O)N(C)C2=O)C2CCCN32)c1 (configuration not stated),"inconclusive: 35.5 µM [inhibitor, single point]"
18,CC(=O)O[C@H]1C(=O)[C@@]2(C)C([C@H](OC(=O)c3ccccc3)[C@]3(O)C[C@H](OC(=O)[C@H](O)[C@@H](NC(=O)Cc4ccccc4)c4ccccc4)C(C)=C1C3(C)C)[C@]1(OC(C)=O)CO[C@@H]1C[C@@H]2O (some centres not stated),"inconclusive: 20 µM [inhibitor, partial curve]"
19,Nc1ccc(Cl)cc1C(=O)c1ccccc1Cl,"inconclusive: 44.7 µM [inhibitor, single point]"
20,COc1ccc(CN2C(=O)CC(=O)NC2=S)cc1,"inconclusive: 50.1 µM [inhibitor, single point]"
21,O=C(Oc1ccc(Cl)c2cccnc12)N1CCCCCC1,"inconclusive: 50.1 µM [inhibitor, single point]"

row,SMILES,Potency
1,O=c1c2ccccc2nc(-c2ccoc2)n1-c1ccccc1Cl,"inconclusive: 35.5 µM [inhibitor, single point]"
2,Cc1ccc(C2CC(=O)C(C=NCCN3CCN(C(=O)Cc4ccccc4)CC3)=C(O)C2)cc1 (configuration not stated),inactive
3,O=[N+]([O-])c1ccc(-[n+]2c(-c3ccccc3)cc(-c3ccccc3)cc2-c2ccccc2)cc1,"inconclusive: 14.1 µM [inhibitor, partial curve]"
4,CSc1nnc([C@@H](N)Cc2c[nH]c3ccccc23)o1,inactive
5,CCC(=O)OC1CCC2C3CCC4=CC(=O)CC[C@@]4(C)C3CC[C@]12C (some centres not stated),"inconclusive: 35.5 µM [inhibitor, partial curve, poor fit]"
6,O=C1NC(=O)C(=Cc2ccccc2Oc2ccc(F)cc2)C(=O)N1,inactive
7,Cc1ccsc1C(=O)C1CCCN(Cc2ccn[nH]2)C1 (configuration not stated),"inconclusive: 14.1 µM [inhibitor, partial curve]"
8,O=C1NC(=O)C(=Cc2csc3ccccc23)C(=O)N1,"inconclusive: 22.4 µM [inhibitor, partial curve]"
9,CCN1CCN(c2ccc(NC(=O)C(C)C)cc2Cl)CC1,"inconclusive: 28.2 µM [inhibitor, single point]"
10,CCOc1cc(C=C2C(=O)NC(=O)NC2=O)ccc1OS(=O)(=O)c1ccccc1,"inconclusive: 28.2 µM [inhibitor, partial curve]"
11,CSCC[C@H](NC(=O)[C@H](CC(C)C)NC(=O)[C@@H](Cc1cnc[nH]1)NC(=O)[C@H](Cc1ccccc1)NC(=O)[C@@H](Cc1ccccc1)NC(=O)[C@@H](N)Cc1ccc(O)cc1)C(N)=O,inactive
12,O=c1c2ccccc2nc(/C=C/c2ccccc2)n1-c1ccccc1F,"inconclusive: 3.55 µM [inhibitor, partial curve]"
13,CCOP(=S)(OCC)O/N=C(\C#N)c1ccccc1Cl,inactive
14,CC1O[C@@H](OC2CC(O)[C@@]3(CO)C4C(O)C[C@@]5(C)C(C6=CC(=O)OC6)CC[C@]5(O)C4CC[C@]3(O)C2)C(O)C(O)C1O (some centres not stated),inactive
15,CCOC(=O)C(O)(c1ccc(NC(=S)NC(=O)c2ccc(Cl)cc2Cl)cc1)C(F)(F)F (configuration not stated),"inconclusive: 31.6 µM [inhibitor, partial curve]"
16,O=C(C(=O)N1CCOCC1)c1cn(CCCOc2ccccc2)c2ccccc12,inactive
17,CN1Cc2ccccc2[C@@H]2c3cccc4[nH]cc(c34)C[C@H]21,inactive
18,c1ccc2c(c1)CN1CCCC1=N2,"inconclusive: 28.2 µM [inhibitor, single point]"
19,Cc1c(N=Nc2c(O)n(-c3ccc(Br)cc3)c(=O)[nH]c2=O)c(=O)n(-c2ccccc2)n1C,inactive
20,O=C(O)CCn1cc(C=C2C(=O)NC(=O)NC2=O)c(-c2cc3ccccc3oc2=O)n1,"inconclusive: 31.6 µM [inhibitor, single point]"
